The campaign covered roughly 130,000 compounds. About 550 (0.42%) were called active. The inconclusive results got no clear call from the source; some entries with a clear call stand among them for comparison. Calls come from the whole dose curve; as a rule, active = well fitted inhibition curve with a large enough effect; inconclusive = small, poorly fitted or top-dose-only effect, or effect the other way; inactive = flat fitted curve, though single readings scatter. Potencies of inconclusive entries are left out as doubtful fits.
Experiment: qHTS Assay for Inhibitors of the ERK Signaling Pathway using a Homogeneous Screening Assay; Stimulation with EGF; note: nearly all actives have a fitted effect of over 55% in size
Conditions: HEK293-V1b, EGF-stimulated phospho-ERK AlphaScreen
Procedure, shortened: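 HEK293 cells stably expressing V1b receptor, serum-reduced (1% FBS) overnight, pretreated 30 min with compound, then stimulated 5 min with 25 nM EGF; phospho-ERK detected by AlphaScreen SureFire. AC50 from Hill fits, normalized to DMSO and EGF.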
Potency is the fitted concentration of half-maximal effect; tags give direction and shape of the fitted curve.

Structure (SMILES)	Potency
Cc1cc(N/N=C/c2ccc(O)c(C)c2O)nc(-c2ccccc2O)n1	inconclusive [inhibitor, single point]
Cc1cc(=O)oc2cc(OCC(=O)OCC(=O)Nc3ccc(C(N)=O)cc3)ccc12	inconclusive [inhibitor, single point]
Cc1nc(N2CCOCC2)c2c(C)c(C(=O)Nc3ccc(C(F)(F)F)cc3)sc2n1	inconclusive [inhibitor, single point]
Cc1ccc(/C=N/NC(=O)CC(=O)NCc2cccnc2)cc1	inactive
C(=N\Nc1nc2ccccc2[nH]1)/c1ccc2c(c1)OCO2	inconclusive [inhibitor, partial curve]
COCC(=O)n1nc(-c2ccc(C)cc2)nc1NCc1ccc(F)cc1	inconclusive [inhibitor, single point]
O=C(CCCN1C(=O)/C(=C\c2cccs2)SC1=S)Nc1ccccn1	inconclusive [inhibitor, full curve]
O=C(NC(=S)NNC(=O)[C@H]1C[C@@H]1c1ccccc1)c1ccc(F)cc1	inconclusive [inhibitor, single point]
C=CSc1sc(Cl)c(N(C)C)c1[N+](=O)[O-]	inconclusive [inhibitor, single point]
COCCn1c(-c2ccc(Cl)cc2)nc2oc3cc(OC)ccc3c(=O)c2c1=O	inconclusive [inhibitor, single point]
COC(=O)C1(C(=O)OC)C[C@H]2CON=C2[C@H]1c1ccccc1	inactive
CCCCCc1ccc(C(=O)CCCC)c(=S)[nH]1	inactive
N[C@@H](Cc1cc(CP(=O)(O)O)cc(-c2ccccc2Cl)c1)C(=O)O	inactive
CCCCOc1cccc(C(=O)NC(=S)Nc2cccnc2)c1	inconclusive [inhibitor, single point]
COc1cc([N+](=O)[O-])cc(/C=N/NC(=O)CSc2ccccn2)c1O	inactive
O=[N+]([O-])c1cc(S(=O)(=O)N2CCCC2)ccc1N/N=C1/CCCc2ccccc21	inconclusive [inhibitor, full curve]
CN1CCN(c2ncc3nc(-c4cc(F)cc(F)c4)c(=O)n(-c4ccccc4)c3n2)CC1	inconclusive [inhibitor, full curve, poor fit]
Cc1ccc(C(=O)Nc2ccc(C)c(S(=O)(=O)Nc3ccccc3Cl)c2)s1	inconclusive [inhibitor, single point]
CC(C)c1ccc2c(c1)CC[C@H]1[C@](C)(CN)CCC[C@]21C	inconclusive [inhibitor, single point]
CSc1ccc(/C=N/N2CCN(Cc3ccccc3Cl)CC2)cc1	inconclusive [inhibitor, full curve]
COc1ccc(C(=O)c2ccc(Cl)c([N+](=O)[O-])c2)cc1	active: 8.91 µM
Cc1cccc(NC(=O)CN(c2ccc(F)cc2)S(C)(=O)=O)c1	inconclusive [inhibitor, single point]

Structure (SMILES)	Potency
CC(=C1C(=O)c2ccccc2C1=O)N1CCN(c2ccc(F)cc2)CC1	inactive
COc1cccc(Nc2nc(-c3cccs3)nc3ccccc23)c1	inconclusive [inhibitor, single point]
O=C(O)c1ccccc1/C=N/N1CCN(C2c3ccccc3-c3ccccc32)CC1	inconclusive [inhibitor, partial curve, poor fit]
Cc1ccc(O)c(NC2=C(Cl)C(=O)N(Cc3ccccc3)C2=O)c1	inconclusive [inhibitor, single point]
NCCCC[C@H]1CNC(=S)N1CCc1cccc(F)c1	inconclusive [activator, single point]
N#Cc1cc(-c2ccccc2)[nH]c1-c1nccc2ccccc12	inconclusive [inhibitor, single point]
CSc1nccc(-c2sc(SC)c(C#N)c2-c2ccccc2)n1	inconclusive [activator, partial curve]
COc1ccc(SN=C2C(C)=CC(=O)C=C2C)cc1	inconclusive [inhibitor, partial curve]
c1ccc2cc(CNCc3cccc4ccccc34)ccc2c1	inconclusive [inhibitor, partial curve]
O=[N+]([O-])c1cccnc1N1CCN(c2ccc(F)cc2)CC1	inconclusive [inhibitor, single point]
O=C(c1cccc(F)c1)N1CCC[C@@]2(CCN(Cc3nccs3)C2)C1	inactive
CCN(CC)CCn1c(-c2ccccc2)nc2c(NC3CCCCC3)nc(C)nc21	inactive
CC(C)Oc1cc(NC(=O)CS(=O)CC(=O)N(C)C)c(Cl)cc1Cl (stereo not drawn)	inconclusive [inhibitor, single point]
O=C(CSc1nnc2ccc(-c3cccnc3)nn12)Nc1ccc(F)cc1F	inconclusive [inhibitor, single point]
O=C(NC(=S)Nc1ccccc1O)c1ccc(Cl)cc1Cl	inconclusive [inhibitor, single point]
CCCN(CCC)C1=CC(=[N+]2CCCC2)CC(C)(C)C1	inactive
CN(C)c1cc[n+](CC(=O)N2CCCc3ccccc32)cc1	inconclusive [inhibitor, single point]
CCOc1cc(N2CCOCC2)c(OCC)cc1NC(=O)COc1ccccc1[N+](=O)[O-]	inconclusive [inhibitor, single point]
O=C(CSc1nc(-c2ccc(Cl)cc2)cs1)Nc1cccc([N+](=O)[O-])c1	inconclusive [inhibitor, partial curve, poor fit]
Cc1ncoc1C(=O)N1CCCC(C(=O)c2ccc(-c3ccccc3)cc2)C1 (stereo not drawn)	inconclusive [inhibitor, single point]
Cc1cc(C)cc(N=c2c([N+](=O)[O-])nn(-c3ccc4c(c3)OCCO4)n2O)c1	inconclusive [inhibitor, partial curve]

Reference: PubChem BioAssay AID1454 (National Center for Advancing Translational Sciences (NCATS), 2008)
